The supplement of paper PMC4604168 (melanoma cell lines)
This is one part of the list. Most values come without repeats; read them as rough.

Test system: WM3619
Assay: cell count relative to DMSO control; melanoma cells; higher = more viable cells
Conditions: library dose: low library concentration; 72 h
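Also: cell number obtained by counting DAPI-stained nuclei in high-throughput microscope images with image analysis software, screen run in 1,536-well plates.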

| Compound | cell count |
| --- | --- |
| C[As](C)SC[C@H](NC(=O)CC[C@H](N)C(=O)O)C(=O)NCC(=O)O [Darinaparsin] + Cc1ccc(NC(=O)c2cccc(N(C)C)c2)cc1NC(=O)c1ccc(O)cc1 [ZM336372] (first compound 0.4 µM, partner dose 2 µM) | 142% |
| C[C@]12O[C@H](C[C@]1(O)CO)n1c3ccccc3c3c4c(c5c6ccccc6n2c5c31)CNC4=O [Lestaurtinib] + CN(c1ncccc1CNc1nc(Nc2ccc3c(c2)CC(=O)N3)ncc1C(F)(F)F)S(C)(=O)=O [PF562271] (first compound 0.004 µM, partner dose 0.08 µM) | 88.7% |
| C[As](C)SC[C@H](NC(=O)CC[C@H](N)C(=O)O)C(=O)NCC(=O)O [Darinaparsin] + Cc1cc(SCc2sc(-c3ccc(C(F)(F)F)c(F)c3)nc2C)ccc1OCC(=O)O [GW0742] (first compound 0.4 µM, partner dose 2 µM) | 117% |
| C[C@]12O[C@H](C[C@]1(O)CO)n1c3ccccc3c3c4c(c5c6ccccc6n2c5c31)CNC4=O [Lestaurtinib] + CC(=O)c1c(C)c2cnc(Nc3ccc(N4CCNCC4)cn3)nc2n(C2CCCC2)c1=O [palbociclib] (first compound 0.004 µM, partner dose 0.04 µM) | 80.4% |
| N.N.[Cl][Pt][Cl] [cisplatin] + Cc1nc(Nc2ncc(C(=O)Nc3c(C)cccc3Cl)s2)cc(N2CCN(CCO)CC2)n1 [dasatanib] (first compound 1.6 µM, partner dose 0.004 µM) | 79.9% |
| Cn1cc(C2=C(c3cn(C4CCN(Cc5ccccn5)CC4)c4ccccc34)C(=O)NC2=O)c2ccccc21 [Enzastaurin] + O=C(O)c1ccc(-c2c[nH]c3ncc(-c4ccccc4)cc23)cc1C1CCCC1 [GSK650394] (first compound 0.8 µM, partner dose 0.16 µM) | 99.2% |

Test system: WM451Lu
Assay: as above
Conditions: library dose: low library concentration; 72 h

| Compound | cell count |
| --- | --- |
| C[C@]12O[C@H](C[C@]1(O)CO)n1c3ccccc3c3c4c(c5c6ccccc6n2c5c31)CNC4=O [Lestaurtinib] + O=C(Oc1ccc([N+](=O)[O-])cc1)N1CCC(C(O)(c2ccc3c(c2)OCO3)c2ccc3c(c2)OCO3)CC1 [JZL184] (first compound 0.004 µM, partner dose 1 µM) | 88.7% |
| C[As](C)SC[C@H](NC(=O)CC[C@H](N)C(=O)O)C(=O)NCC(=O)O [Darinaparsin] + Cc1cc([N+](=O)[O-])ccc1NS(=O)(=O)c1cc(Cl)ccc1Cl [FH535] (first compound 0.4 µM, partner dose 1 µM) | 109% |
| C[C@]12O[C@H](C[C@]1(O)CO)n1c3ccccc3c3c4c(c5c6ccccc6n2c5c31)CNC4=O [Lestaurtinib] + CN(C)S(=O)(=O)c1ccc2c(c1)/C(=C/c1cc3c([nH]1)CCCC3)C(=O)N2 [SU6656] (first compound 0.004 µM, partner dose 0.4 µM) | 111% |
| Cn1cc(C2=C(c3cn(C4CCN(Cc5ccccn5)CC4)c4ccccc34)C(=O)NC2=O)c2ccccc21 [Enzastaurin] + CNC(=O)c1cc(Oc2ccc(NC(=O)Nc3ccc(Cl)c(C(F)(F)F)c3)cc2)ccn1 [sorafenib] (first compound 0.8 µM, partner dose 0.4 µM) | 110% |
| C[C@]12O[C@H](C[C@]1(O)CO)n1c3ccccc3c3c4c(c5c6ccccc6n2c5c31)CNC4=O [Lestaurtinib] + CCCCCCCCCCCC1=C(O)C(=O)C=C(O)C1=O [Embelin] (first compound 0.004 µM, partner dose 1.2 µM) | 98.6% |
| C[C@]12O[C@H](C[C@]1(O)CO)n1c3ccccc3c3c4c(c5c6ccccc6n2c5c31)CNC4=O [Lestaurtinib] + CCc1ccc(CCOc2ccc(CC3SC(=O)NC3=O)cc2)nc1 [pioglitazone] (first compound 0.004 µM, partner dose 2 µM) | 80.3% |
| Cn1cc(C2=C(c3cn(C4CCN(Cc5ccccn5)CC4)c4ccccc34)C(=O)NC2=O)c2ccccc21 [Enzastaurin] + CC1(C)NC(=O)N(c2ccc([N+](=O)[O-])c(C(F)(F)F)c2)C1=O [nilutamide] (first compound 0.8 µM, partner dose 1 µM) | 118% |
| N.N.[Cl][Pt][Cl] [cisplatin] + COc1cc(Nc2ncc(F)c(Nc3ccc4c(n3)NC(=O)C(C)(C)O4)n2)cc(OC)c1OC [Tamatinib] (first compound 1.6 µM, partner dose 0.4 µM) | 84% |
| C[C@]12O[C@H](C[C@]1(O)CO)n1c3ccccc3c3c4c(c5c6ccccc6n2c5c31)CNC4=O [Lestaurtinib] + O=C(O)c1ccc(-c2c[nH]c3ncc(-c4ccccc4)cc23)cc1C1CCCC1 [GSK650394] (first compound 0.004 µM, partner dose 0.16 µM) | 107% |
| Cn1cc(C2=C(c3cn(C4CCN(Cc5ccccn5)CC4)c4ccccc34)C(=O)NC2=O)c2ccccc21 [Enzastaurin] + NC(=O)Nc1cc(-c2cccc(F)c2)sc1C(=O)N[C@H]1CCCNC1 [AZD7762] (first compound 0.8 µM, partner dose 0.02 µM) | 91.7% |
| Cn1cc(C2=C(c3cn(C4CCN(Cc5ccccn5)CC4)c4ccccc34)C(=O)NC2=O)c2ccccc21 [Enzastaurin] + COc1ccc2c(c1)CCC1C2CCC2(C)C(NCCCCCCN3C(=O)C=CC3=O)CCC12 [U73122] (first compound 0.8 µM, partner dose 0.4 µM) | 90.6% |
| C[As](C)SC[C@H](NC(=O)CC[C@H](N)C(=O)O)C(=O)NCC(=O)O [Darinaparsin] + c1cc(-c2cnn3cc(-c4ccc(OCCN5CCCCC5)cc4)cnc23)ccn1 [Dorsomorphin] (first compound 0.4 µM, partner dose 0.4 µM) | 100% |
| N.N.[Cl][Pt][Cl] [cisplatin] + COC(=O)c1sccc1S(=O)(=O)Nc1ccc(Nc2ccccc2)cc1OC [GSK0660] (first compound 1.6 µM, partner dose 1 µM) | 114% |
| C[As](C)SC[C@H](NC(=O)CC[C@H](N)C(=O)O)C(=O)NCC(=O)O [Darinaparsin] + Cc1nc(Nc2ncc(C(=O)Nc3c(C)cccc3Cl)s2)cc(N2CCN(CCO)CC2)n1 [dasatanib] (first compound 0.4 µM, partner dose 0.004 µM) | 79.9% |
| Cn1cc(C2=C(c3cn(C4CCN(Cc5ccccn5)CC4)c4ccccc34)C(=O)NC2=O)c2ccccc21 [Enzastaurin] + Cn1c(=O)n(-c2ccc(C(C)(C)C#N)cc2)c2c3cc(-c4cnc5ccccc5c4)ccc3ncc21 [NVP-BEZ235] (first compound 0.8 µM, partner dose 0.004 µM) | 156% |
| Cn1cc(C2=C(c3cn(C4CCN(Cc5ccccn5)CC4)c4ccccc34)C(=O)NC2=O)c2ccccc21 [Enzastaurin] + C=CCNC1=C2C[C@@H](C)C[C@H](OC)[C@H](O)[C@@H](C)/C=C(\C)[C@H](OC(N)=O)[C@@H](OC)/C=C\C=C(/C)C(=O)NC(=CC1=O)C2=O [Tanespimycin] (first compound 0.8 µM, partner dose 0.002 µM) | 110% |
| Cn1cc(C2=C(c3cn(C4CCN(Cc5ccccn5)CC4)c4ccccc34)C(=O)NC2=O)c2ccccc21 [Enzastaurin] + Cn1nnc2c(C(N)=O)ncn2c1=O [temozolomide] (first compound 0.8 µM, partner dose 2 µM) | 107% |
| C[C@]12O[C@H](C[C@]1(O)CO)n1c3ccccc3c3c4c(c5c6ccccc6n2c5c31)CNC4=O [Lestaurtinib] + CN(NC(=O)CC(=O)NN(C)C(=S)c1ccccc1)C(=S)c1ccccc1 [STA4783] (first compound 0.004 µM, partner dose 0.006 µM) | 89.6% |
| C[C@]12O[C@H](C[C@]1(O)CO)n1c3ccccc3c3c4c(c5c6ccccc6n2c5c31)CNC4=O [Lestaurtinib] + C[C@]1(O)C[C@@H](c2nc(-c3ccc4ccc(-c5ccccc5)nc4c3)c3c(N)nccn32)C1 [OSI906] (first compound 0.004 µM, partner dose 0.4 µM) | 98.2% |
| C[As](C)SC[C@H](NC(=O)CC[C@H](N)C(=O)O)C(=O)NCC(=O)O [Darinaparsin] + C/C(O)=C(\C#N)C(=O)Nc1cc(Br)ccc1Br [LFM-A13] (first compound 0.4 µM, partner dose 2 µM) | 85.2% |
| C[C@]12O[C@H](C[C@]1(O)CO)n1c3ccccc3c3c4c(c5c6ccccc6n2c5c31)CNC4=O [Lestaurtinib] + Nc1ccn([C@@H]2O[C@H](CO)[C@@H](O)C2(F)F)c(=O)n1 [gemcitabine] (first compound 0.004 µM, partner dose 0.0004 µM) | 112% |
| N.N.[Cl][Pt][Cl] [cisplatin] + C[As](C)SC[C@H](NC(=O)CC[C@H](N)C(=O)O)C(=O)NCC(=O)O [Darinaparsin] (first compound 1.6 µM, partner dose 0.4 µM) | 107% |
| Cn1cc(C2=C(c3cn(C4CCN(Cc5ccccn5)CC4)c4ccccc34)C(=O)NC2=O)c2ccccc21 [Enzastaurin] + O=C(Nc1cccc(Cl)c1)Nc1ncc(CCNc2ncnc3ccsc23)s1 [SNS314] (first compound 0.8 µM, partner dose 0.0008 µM) | 100% |
